According to article PMC11832770, “NADH-bound AIF activates the mitochondrial CHCHD4/MIA40 chaperone by a substrate-mimicry mechanism” (The EMBO Journal, 2025):
Substitutions are numbered along the chain they refer to. Names and notes keep the numbering of the source. No constants are given. Whether binding was seen depends on the method and setting. For some assays here: In cells and extracts the contact can be indirect. Some entries that bind do so weakly or less than the wild type. For some assays here: Tags and fused reporters may be left off the sequences shown. Each block holds one molecule with its values, some of them ahead of it.

Amino acid sequences for entries named in this document (tags omitted). A change or cut given only in a name is not applied to a line headed by its entry.
UniProt O95831: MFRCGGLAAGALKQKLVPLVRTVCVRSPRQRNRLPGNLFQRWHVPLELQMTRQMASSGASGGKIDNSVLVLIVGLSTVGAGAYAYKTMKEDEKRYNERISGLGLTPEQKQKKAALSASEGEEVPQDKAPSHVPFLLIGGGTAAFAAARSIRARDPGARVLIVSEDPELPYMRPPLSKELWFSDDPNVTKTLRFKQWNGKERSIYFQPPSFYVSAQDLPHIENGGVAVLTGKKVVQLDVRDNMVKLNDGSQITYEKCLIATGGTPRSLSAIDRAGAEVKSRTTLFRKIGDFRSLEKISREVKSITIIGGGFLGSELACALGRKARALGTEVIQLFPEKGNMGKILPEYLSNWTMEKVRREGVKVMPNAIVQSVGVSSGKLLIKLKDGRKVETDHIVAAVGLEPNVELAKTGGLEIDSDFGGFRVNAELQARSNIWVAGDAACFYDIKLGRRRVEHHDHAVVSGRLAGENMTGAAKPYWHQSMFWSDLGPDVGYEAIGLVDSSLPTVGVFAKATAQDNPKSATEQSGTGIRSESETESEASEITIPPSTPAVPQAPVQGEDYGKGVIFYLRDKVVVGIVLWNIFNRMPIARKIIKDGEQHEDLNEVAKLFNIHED

Tests used:
[1] = biological target: T1, CHCHD4-AIA-A-HA (I12A/F14A/H20A) (human) (UniProt Q8N4Q1); assay: co-IP; 293T cells transfected with HA-tagged CHCHD4 constructs; whole-cell lysate (25 mM HEPES pH 7.5, 150 mM NaCl, 5 mM TCEP, 0.5 mM EDTA, 0.1% Tween-20) precipitated with anti-HA and Protein G Dynabeads; blot for endogenous AIF
T1 sequence: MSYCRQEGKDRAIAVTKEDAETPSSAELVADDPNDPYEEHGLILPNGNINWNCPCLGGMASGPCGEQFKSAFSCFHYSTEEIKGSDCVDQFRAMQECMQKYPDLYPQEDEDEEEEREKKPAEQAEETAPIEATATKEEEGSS

[2] = biological target: T2, CHCHD4-AIA-HA (I12A/F14A) (human) (UniProt Q8N4Q1); assay: as above
T2 sequence: T1 sequence with A20H

[3] = biological target: T3, CHCHD4-SPS-HA (C53S/C55S) (human) (UniProt Q8N4Q1); assay: as above
T3 sequence: T1 sequence with A12I, A14F, A20H, C53S, C55S

[4] = biological target: T4, CHCHD4-SX9S-HA (C64S/C74S/C87S/C97S) (human) (UniProt Q8N4Q1); assay: as above
T4 sequence: T1 sequence with A12I, A14F, A20H, C64S, C74S, C87S, C97S

CHCHD4-WT-HA (human) = biological target: T5, CHCHD4-WT-HA (human) (UniProt Q8N4Q1); assay: as above
T5 sequence: T1 sequence with A12I, A14F, A20H

[5] = biological target: T6, ΔN-CHCHD4-HA (residues 40-142) (human) (UniProt Q8N4Q1); assay: as above
T6 sequence: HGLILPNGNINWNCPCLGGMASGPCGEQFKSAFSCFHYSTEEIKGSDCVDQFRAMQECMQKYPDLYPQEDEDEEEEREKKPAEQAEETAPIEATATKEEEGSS

Atto488-AIF(78-613)/NADH [6] = biological target: T7, Atto488-AIF(78-613)/NADH (human, UniProt O95831 78-613, ATTO 488 (NHS ester) on the N-terminus); assay: MST; CHCHD4 constructs titrated (1.8 nM–15 or 30 µM) into 100 nM Atto488-AIF(78-613) with unlabeled AIF and NADH (pre-formed charge-transfer complex); 25 mM HEPES pH 7.5, 150 mM NaCl, 0.01% Tween-20, 5 mM TCEP; 25 °C; first block of Table 1 (Fig. 1B); both purified
T7 construct: Apoptosis-inducing factor (AIF), human, residues 78-613; also called Atto488-AIF-NADH; Atto488-AIF/NADH

[7] = biological target: ΔN-CHCHD4-SPS (residues 40-142, C53S/C55S) (human) (UniProt Q8N4Q1); assay: SEC; Superdex 75 10/300, 25 mM HEPES pH 7.5, 150 mM NaCl, without reducing agent (also ± 5 mM βME and after 0-10 mM TCEP); 200 µM samples; monomer against disulfide-mediated dimer; both purified
[8] = biological target: T8, Atto488-ΔN-CHCHD4-SPS, unfolded (human) (UniProt Q8N4Q1); assay: condition: only with NADH but without AIF; up to 30 µM CHCHD4-SPS; MST; as a11 but with NADH only, no AIF (NADH control); both purified
T8 sequence (chain, ATTO 488 (NHS ester) on the N-terminus): T6 sequence with C14S, C16S

[9] = biological target: T9, CHCHD6, unfolded and reduced (human, UniProt Q9BRQ6 1-235); assay: ITC; 700-750 µM CPC-inactivated CHCHD4 constructs titrated into 50 µM unfolded substrate; 25 mM HEPES pH 7.5, 150 mM NaCl, 1 mM TCEP; 25 °C; both purified
T9 construct: CHCHD6 (MIC25), human, CX9C import substrate; construct from the DNASU Plasmid Repository inserted into pET30a; also called unfolded CHCHD6 substrate; MIC25; source: E. coli Rosetta2Gami(DE3), purified; unfolded by heating at 70 °C for 20 min with TCEP; not shown: GB1-6X-His, N-terminal, cleaved
T9 sequence (looked up): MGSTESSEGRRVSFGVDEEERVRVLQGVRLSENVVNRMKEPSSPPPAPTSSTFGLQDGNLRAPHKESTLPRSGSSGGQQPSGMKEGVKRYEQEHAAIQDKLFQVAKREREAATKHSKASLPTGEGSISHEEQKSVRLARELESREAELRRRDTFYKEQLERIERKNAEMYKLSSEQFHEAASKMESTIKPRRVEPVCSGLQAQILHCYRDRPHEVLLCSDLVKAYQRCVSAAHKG

[10] = biological target: T8, Atto488-ΔN-CHCHD4-SPS, unfolded (human); assay: condition: only with AIF(78-613) but without NADH; up to 30 µM CHCHD4-SPS; MST; as a11 but with AIF(78-613) without NADH (unstimulated AIF monomer); both purified
Atto488-AIF(78-613)/NADH [11] = biological target: T7, Atto488-AIF(78-613)/NADH; assay: MST; CHCHD4 interface mutants titrated (1.8 nM–15 or 30 µM) into 100 nM Atto488-AIF(78-613) with unlabeled AIF and NADH; same buffer, 25 °C; third block of Table 1 (Fig. 2A), fitted with a Hill coefficient; both purified
AIF(78-613), wild type = biological target: T10, AIF(78-613), wild type (human, UniProt O95831 78-613); assay: SEC-MALS; Superdex 200 10/300 in 25 mM HEPES pH 7.5, 150 mM NaCl, 0.02% sodium azide; AIF 33 µM, CHCHD4 50 µM with 5 mM TCEP, complexes with 120 µM NADH, incubated 10 min at room temperature; both purified
T10 construct: Apoptosis-inducing factor (AIF), human, residues 78-613, lacking the inner mitochondrial membrane tether; Construct from Brosey et al 2016; also called Apoptosis-inducing factor; AIF + NADH; source: E. coli Rosetta2(DE3), purified (Ni-NTA, PreScission cleavage, subtractive Ni-NTA, Superdex 200)

B4: CHCHD4-H20D (protein, UniProt Q8N4Q1 1-142)
chain: T1 sequence with A12I, A14F, A20D
binding (Atto488-AIF(78-613)/NADH [11]): no binding (tested: 15 (or 30) µM)

B5: CHCHD4-AIA-A (I12A/F14A/H20A) (protein, UniProt Q8N4Q1 1-142)
chain: T1 sequence
binding (AIF(78-613), wild type): no binding (tested: 50 µM) | binding (Atto488-AIF(78-613)/NADH [11]): no binding (tested: 15 (or 30) µM)

Next, values leading:

binding [1]: no binding | binding [2]: no binding | binding [3]: binds | binding [4]: binds | binding (CHCHD4-WT-HA (human)): binds | binding [5]: no binding
Molecule: endogenous AIF (293T cells) (from UniProt O95831 102-613)

binding (Atto488-AIF(78-613)/NADH [6]): no binding (tested: 15 (or 30) µM)
B1: ΔN-CHCHD4 (residues 40-142) (domain or fragment, human, UniProt Q8N4Q1 40-142, looked up)
chain: T6 sequence
notes: also called N-terminal truncation mutant; source: E. coli Rosetta2Gami(DE3), purified (Ni-NTA, PreScission cleavage, subtractive Ni-NTA, Superdex 75); not shown: GB1-6X-His, N-terminal, cleaved

binding [7]: no binding (tested: 200 µM)
B2: ΔN-CHCHD4-SPS (residues 40-142, C53S/C55S) (domain or fragment, human, UniProt Q8N4Q1 40-142, looked up)
chain: T6 sequence with C14S, C16S
notes: Folded, as titrant in ITC and in analytical SEC; also called ΔN-SPS; source: E. coli Rosetta2Gami(DE3), purified (Ni-NTA, PreScission cleavage, subtractive Ni-NTA, Superdex 75); not shown: GB1-6X-His, N-terminal, cleaved

binding [8]: no binding | binding [9]: binds weakly | binding [10]: no binding
B3: CHCHD4-SPS (C53S/C55S), full length (natural protein, human, UniProt Q8N4Q1 1-142, looked up)
chain: T1 sequence with A12I, A14F, A20H, C53S, C55S
notes: source: E. coli Rosetta2Gami(DE3), purified (Ni-NTA, PreScission cleavage, subtractive Ni-NTA, Superdex 75); not shown: GB1-6X-His, N-terminal, cleaved
